# Reference: a collection of fitness landscapes (doi:10.1016/j.celrep.2020.107928)
# The full ranking holds about 81,000 sequences; the median of “one-hybrid fitness for binding parS DNA” is about -0.17, and the highest 2% start at about 0.51. The list shows a part of the results.
# B1: Caulobacter ParB omega fusion; a variant is named by its letters at X, in order, B8GW30 (parent)
# chain: MESVVVGEPGMSEGRRGLGRGLSALLGEVDAAPAQAPGEQLGGSREAPIEILQRNPDQPRRTFREEDLEDLSNSIREKGVLQPILVRPSPDTAGEYQIVAGERAWRAAQRAGLKTVPIMVRELDDLAVLEIGIIENVQRADLNVLEEALSYKVLMEKFERTQENIAQTIGKSXSHVANXMRLLXLPDEVQSYLVSGELTAXHARAIAAAADPVALAKQIIEGGLSVRETEALARKAPNLSAGKSKGGRPPRVKDTDTQALESDLSSVLGLDVSIDHRGSTGTLTITYATLEQLDDLCNRLTRGI
# Variants of: B1
# Assay: one-hybrid fitness for binding parS DNA (scaled: cognate 1, non-cognate 0); higher = stronger binding
# Conditions: with parS DNA site
# How it was run: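 Caulobacter ParB libraries with four specificity codons randomised were screened by bacterial one-hybrid selection in the E. coli USO strain, using a HIS3 reporter whose site lies 19 bp from the promoter. Selection ran for 48 hours at 37°C on M9 lacking histidine, with 0.1 mM IPTG and 5 mM 3-AT. Plasmids were Illumina-sequenced before and after selection, three replicate libraries were pooled, and variants with under 10 reads were dropped. Fitness is the log change in each variant's read ratio to wild type, rescaled against the cognate and non-cognate sites.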
row,Variant,one-hybrid fitness for binding parS DNA
1,LAWC,≤ 0.2
2,PKNS,≤ 0.2
3,QLWV,≤ 0.2
4,GYES,≤ 0.2
5,ITWT,≤ 0.2
6,NWTF,≤ 0.2
7,RLNK,≤ 0.2
8,FYKT,≤ 0.2
9,NQRG,≤ 0.2
10,AVPT,≤ 0.2
11,TVET,≤ 0.2
12,MLSG,≤ 0.2
13,CYSR,≤ 0.2
14,TEKY,≤ 0.2
15,MIDR,≤ 0.2
16,DAWS,≤ 0.2
17,MING,≤ 0.2
18,GPSA,≤ 0.2
19,QVET,≤ 0.2
20,LANY,≤ 0.2
21,HPVQ,≤ 0.2
22,SWTS,≤ 0.2
23,NEPY,≤ 0.2
24,ISPR,≤ 0.2
25,RCKM,0.402

row,Variant,one-hybrid fitness for binding parS DNA
1,PVSY,≤ 0.2
2,RCLV,≤ 0.2
3,VEEM,≤ 0.2
4,HPFR,≤ 0.2
5,VIAV,≤ 0.2
6,LPQE,≤ 0.2
7,CRSF,≤ 0.2
8,GPHC,≤ 0.2
9,YELL,≤ 0.2
10,RTWF,0.275
11,FALA,≤ 0.2
12,RNWW,≤ 0.2
13,SGAN,≤ 0.2
14,GVFC,≤ 0.2
15,YVCL,≤ 0.2
16,CAET,≤ 0.2
17,PHAK,≤ 0.2
18,DKWS,≤ 0.2
19,PSDC,≤ 0.2
20,HKAC,≤ 0.2
21,NWNS,≤ 0.2
22,AVKT,≤ 0.2
23,LIDC,≤ 0.2
24,KSMW,≤ 0.2
25,ITPC,≤ 0.2

row,Variant,one-hybrid fitness for binding parS DNA
1,WTLY,≤ 0.2
2,MAWC,≤ 0.2
3,HRPA,≤ 0.2
4,CLDS,≤ 0.2
5,IEQW,≤ 0.2
6,PLRG,≤ 0.2
7,EKMR,≤ 0.2
8,QAWP,≤ 0.2
9,AQHF,≤ 0.2
10,RSCN,0.407
11,NFFG,≤ 0.2
12,SPID,≤ 0.2
13,ASIP,≤ 0.2
14,VAMG,≤ 0.2
15,SRQA,≤ 0.2
16,TAHL,≤ 0.2
17,LMSN,≤ 0.2
18,RMYM,0.348
19,NHPT,≤ 0.2
20,ASCG,≤ 0.2
21,GHPF,≤ 0.2
22,IPFF,≤ 0.2
23,SSDK,≤ 0.2
24,HGCR,≤ 0.2
25,PGNK,≤ 0.2

row,Variant,one-hybrid fitness for binding parS DNA
1,RNLY,0.303
2,LRLK,≤ 0.2
3,QHMN,≤ 0.2
4,KIHR,≤ 0.2
5,RLAH,≤ 0.2
6,SGTN,≤ 0.2
7,ADNC,≤ 0.2
8,SRTT,≤ 0.2
9,TAIK,≤ 0.2
10,HPPQ,≤ 0.2
11,TWTC,≤ 0.2
12,RHSG,0.958
13,TQPE,≤ 0.2
14,APPA,≤ 0.2
15,KHVE,≤ 0.2
16,RHLL,≤ 0.2
17,GMIS,≤ 0.2
18,GDLR,≤ 0.2
19,PAFP,≤ 0.2
20,CDSL,≤ 0.2
21,VTSS,≤ 0.2
22,EGKI,≤ 0.2
23,RHAG,0.969
24,SIEG,≤ 0.2
25,PFRI,≤ 0.2

row,Variant,one-hybrid fitness for binding parS DNA
1,GISC,≤ 0.2
2,TMSP,≤ 0.2
3,CDTG,≤ 0.2
4,DIAY,≤ 0.2
5,LGAR,≤ 0.2
6,LSRL,≤ 0.2
7,QTNQ,≤ 0.2
8,THCR,≤ 0.2
9,TCRH,≤ 0.2
10,AYPT,≤ 0.2
11,LRSS,≤ 0.2
12,RKVD,≤ 0.2
13,HFCR,≤ 0.2
14,WTFN,≤ 0.2
15,MQWR,≤ 0.2
16,PRSV,≤ 0.2
17,QMSM,≤ 0.2
18,EVTT,≤ 0.2
19,DMTS,≤ 0.2
20,FGYT,≤ 0.2
21,EDNR,≤ 0.2
22,QYVQ,≤ 0.2
23,TNPV,≤ 0.2
24,DCRS,≤ 0.2
25,FTGR,≤ 0.2

row,Variant,one-hybrid fitness for binding parS DNA
1,PRWL,≤ 0.2
2,FIMR,≤ 0.2
3,DQNG,≤ 0.2
4,MKCT,≤ 0.2
5,IRNR,≤ 0.2
6,RYWS,0.99
7,YGDR,≤ 0.2
8,MHFY,≤ 0.2
9,LLVG,≤ 0.2
10,ESVT,≤ 0.2
11,FTWG,≤ 0.2
12,QVFR,≤ 0.2
13,EMAA,≤ 0.2
14,LPGG,≤ 0.2
15,RYEP,≤ 0.2
16,SGNL,≤ 0.2
17,QRLN,≤ 0.2
18,RWRL,≤ 0.2
19,NDLL,≤ 0.2
20,PRGV,≤ 0.2
21,NTML,≤ 0.2
22,QPDS,≤ 0.2
23,NRQC,≤ 0.2
24,QASI,≤ 0.2
25,KRMS,≤ 0.2

row,Variant,one-hybrid fitness for binding parS DNA
1,HRIC,≤ 0.2
2,PFPL,≤ 0.2
3,TPAG,≤ 0.2
4,HHRR,≤ 0.2
5,RMNK,≤ 0.2
6,TEMG,≤ 0.2
7,TDNA,≤ 0.2
8,APSS,≤ 0.2
9,SVVG,≤ 0.2
10,RCGY,0.43
11,YCHS,≤ 0.2
12,PRYS,≤ 0.2
13,MTDD,≤ 0.2
14,GEPF,≤ 0.2
15,ELYR,≤ 0.2
16,INPT,≤ 0.2
17,SRLV,≤ 0.2
18,STQG,≤ 0.2
19,RCKT,0.748
20,HQDR,≤ 0.2
21,KPKR,≤ 0.2
22,ESIT,≤ 0.2
23,PHEW,≤ 0.2
24,EIDS,≤ 0.2
25,TKIE,≤ 0.2

row,Variant,one-hybrid fitness for binding parS DNA
1,YRIG,≤ 0.2
2,MPFT,≤ 0.2
3,FFHG,≤ 0.2
4,VYGA,≤ 0.2
5,KTPR,≤ 0.2
6,WLRC,≤ 0.2
7,RDDA,≤ 0.2
8,HRFA,≤ 0.2
9,HKMR,≤ 0.2
10,QHFI,≤ 0.2
11,PHAA,≤ 0.2
12,SLWV,≤ 0.2
13,NPNC,≤ 0.2
14,SNDR,≤ 0.2
15,QRWP,≤ 0.2
16,WDRS,≤ 0.2
17,TPYN,≤ 0.2
18,PWLI,≤ 0.2
19,RITY,0.443
20,FRTT,≤ 0.2
